Experimental data reported in PubChem BioAssay AID686979 (National Center for Advancing Translational Sciences (NCATS), 2013).
“And” between values parts separate entries of the source, which are not always exact repeats. Identical values can stand only once. Out of some 420,000 compounds screened, about 50,000 (12%) were called active. Inconclusive means that the source gave no clear call. Such entries were picked first, then a sample of the others. Calls come from the whole dose curve; as a rule, active = well fitted inhibition curve with a large enough effect; inconclusive = small, poorly fitted or top-dose-only effect; inactive = flat fitted curve, though single readings scatter. Potencies beside an inconclusive call are fits to weak or partial responses and may not hold up.

Assay: qHTS for Inhibitors of human tyrosyl-DNA phosphodiesterase 1 (TDP1): qHTS in cells in presence of CPT; note: nearly all actives have a fitted effect of over 55% in size
Conditions: chicken DT40 Tdp1-/-;hTDP1 cells + 20 nM CPT, ATP luminescence, 48 h; activity change, negative = growth inhibition: at 46.2 µM (top of the series)
Procedure, shortened: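 Chicken DT40 Tdp1-/- cells stably complemented with human TDP1 were seeded at 400 cells/well in medium containing 20 nM camptothecin, exposed to pin-transferred compounds, and grown at 37 °C for at least 48 hr. Viability was read as ATP luminescence.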
% is set by controls: 0 for no effect and ±100 for the full control effect; potency is the fitted concentration of half-maximal effect; tags give direction and shape of the fitted curve.

SMILES | Potency | activity change, negative = growth inhibition
CCOC(=O)N1CCc2c(sc3c2c(=O)n(Cc2ccccc2)c(=O)n3Cc2ccc(C)cc2)C1 | inactive and inconclusive: 29.1 µM [inhibitor, single point] | –
Cc1cc(S(=O)(=O)N2CCCCC2)ccc1OCC(=O)Nc1ccccc1 | inconclusive: 29.1 µM [inhibitor, single point] | –
c1ccc(N=Nc2ccc3cccccc2-3)cc1 | – | inactive: -26.5%
Cn1c(=N)n(CC(=O)c2cccs2)c2ccccc21 | inconclusive: 7.31 µM [inhibitor, partial curve] | –
O=C(O)c1ccccc1/C=N/NC(=S)NCc1ccccc1 | – | inactive: -13.3%
COc1cc2c(NC3CCN(C)CC3)nc(N3CCN(C)CC3)nc2cc1OCCCN(C)C | inconclusive: 14.1 µM [inhibitor, single point] | –
COc1ccc(CCNC(=O)CCCn2c(SCC(N)=O)nc3cc4c(cc3c2=O)OCO4)cc1OC | – | inactive: 3.52%
CN1CCN(C(=O)c2ccc3c(c2)N(C)C(=O)/C(=C/c2cccc(Cl)c2)S3)CC1 | inconclusive: 20.6 µM [inhibitor, single point] | –
Cc1ccc(S(=O)(=O)N2CCN(C(=O)CSc3nc4ccccc4c(=O)[nH]3)CC2)c(C)c1 | inconclusive: 18.4 µM [inhibitor, partial curve] | –
Cc1ccc(Cl)cc1N1CCN(C(=O)c2ccc(NC3=NC4CS(=O)(=O)CC4S3)cc2)CC1 (stereo not drawn) | inconclusive: 18.4 µM [inhibitor, single point] | –
C=CCn1c(C)c(C(C)=O)c(N2CCCC2)nc1=S | – | inconclusive: -30.7% [inhibitor]
CCc1cc2c(SCC(=O)N(CC)c3c(N)n(Cc4ccccc4)c(=O)[nH]c3=O)ncnc2s1 | inconclusive: 29.1 µM [inhibitor, single point] | –
CCOc1ccc(NC(=O)CCn2ccnc2)cc1 | – | inactive: 7.9%
CC(=O)c1c(C)[nH]c(C(=O)OCC(=O)Nc2c(C)n(C)n(-c3ccccc3)c2=O)c1C | – | inactive: -7.08%
O=c1[nH]c(Cc2cccs2)nc2scc(-c3ccc(Cl)cc3)c12 | active: 13 µM | –
CC(C)(C)c1ccc(/C=C/C(=O)N2CCN(c3ncccn3)CC2)cc1 | inconclusive: 18.4 µM [inhibitor, single point] | –
CSc1ccc(CNC(=O)CCc2c(C)nn(-c3ccc(N4CCCC4)nn3)c2C)cc1 | inconclusive: 29.1 µM [inhibitor, single point] | –
CN(C)C(=O)N1CCC(C(=O)N2CCCC(C(=O)c3ccc(C(C)(C)C)cc3)C2)CC1 (stereo not drawn) | inconclusive: 18.4 µM [inhibitor, single point] | –
CCN1CCN(c2nc(-c3ccc(F)cc3)cc(=O)[nH]2)CC1 | – | inactive: 16.8%
CC1CCN(c2oc(-c3ccc(COc4ccc(Cl)cc4)o3)nc2C#N)CC1 | inconclusive: 29.1 µM [inhibitor, single point] | –
CNc1cncc(-c2cccc(O)c2)n1 | inconclusive: 20.6 µM [inhibitor, partial curve] | –
COc1ccc(CNC(=O)C2=C(C)C(=O)OC23CCN(C(C)=O)CC3)cc1 | – | inactive: 2.63%
CC(C)(C)C(=O)N1CCN(c2nc3ccc(Cl)cc3s2)CC1 | inconclusive: 23.1 µM [inhibitor, single point] | –

SMILES | Potency | activity change, negative = growth inhibition
Cc1cc(C)nc(NC(=O)c2cccc(Br)c2)n1 | – | inactive: 26.4%
CCOC(=O)c1c(NC(=O)CSc2nnc(-c3c[nH]c4ccccc34)n2C)sc2c1CCCC2 | inconclusive: 29.1 µM [inhibitor, single point] | –
CCOC(=O)C1=C(C)N(c2ccc(Cl)cc2)C(=O)NC1c1cccc([N+](=O)[O-])c1 (stereo not drawn) | inconclusive: 29.1 µM [inhibitor, single point] | –
Cc1ccc(-c2noc(C3CCN(C(=O)Nc4ccc(C#N)cc4)CC3)n2)o1 | active: 23.1 µM | –
COc1cc(/C=N/Nc2ccccn2)ccc1OCC(C)C | inconclusive: 18.4 µM [inhibitor, single point] | –
CCOc1ccccc1CNC(=O)c1ccc(Cn2c(SCc3ccccc3)nc3cccnc32)cc1 | inconclusive: 29.1 µM [inhibitor, single point] | –
O=C(Nc1ccccc1)Nc1nc(-c2ccc(F)cc2)cs1 | active: 4.11 µM | –
Nc1nc(/C(=C/CC(=O)O)C(=O)N[C@@H]2C(=O)N3C(C(=O)O)=CCS[C@H]23)cs1 | – | inactive: -22.6%
CCOc1ccc(C2N(c3cc(C)on3)C(=O)C3CCCN32)cc1OC (stereo not drawn) | inconclusive: 23.1 µM [inhibitor, single point] | –
COc1ccc(C(=O)c2ccc(OC)c3cccc(O)c23)cc1OC | inconclusive: 23.1 µM [inhibitor, single point] | –
C=CCCCCCCCCCCCC(O)CC(O)CO (stereo not drawn) (tested in a mixture with another compound) | inconclusive: 18.4 µM [inhibitor, single point] | –
COc1ccc2c(c1)c(/C=C/c1cc[n+](C)cc1)cn2C | active: 4.61 µM | –
S=C(NCCOCCOCCNC(=S)Nc1ccccc1)Nc1ccccc1 | – | inactive: -0.483%
CCc1ccc2nc(SCC(=O)N3CC(=O)Nc4ccccc43)c(C#N)cc2c1 | inconclusive: 20.6 µM [inhibitor, single point] | –
O=C(C1CCN(S(=O)(=O)c2cccc3cccnc23)CC1)N1CCN(Cc2ccccc2)CC1 | inconclusive: 29.1 µM [inhibitor, single point] | –
CN1C(=O)C(C(=O)NC(C)(C)C)C2c3ccccc3OC13CCCCC23 (stereo not drawn) | inconclusive: 9.2 µM [inhibitor, partial curve] | –
COc1ccc(C(=O)Nc2ccc3c(c2)OCCO3)c(OC)c1 | – | inactive: -17.7%
CC(C)C(=O)N1CCC1(C)C(=O)Nc1ccccc1OC(F)F (stereo not drawn) | inconclusive: 29.1 µM [inhibitor, single point] | –
O=[N+]([O-])c1cccc(-c2nc3ccc([N+](=O)[O-])cc3[nH]2)c1 | active: 10.3 µM | –
CCc1ccccc1N(CC(=O)N/N=C/c1ccc(OC(=O)OC)c(OC)c1)S(C)(=O)=O | inconclusive: 18.4 µM [inhibitor, single point] | –
C=CCOC(=O)N1CCC2CC1c1cc(-c3ccc(OC)cc3)ccc12 (stereo not drawn) | inconclusive: 29.1 µM [inhibitor, single point] | –
C[C@H](CO)N1C[C@H](C)[C@@H](CN(C)C(=O)Nc2ccc(C(F)(F)F)cc2)Oc2c(NC(=O)Nc3ccc4c(c3)OCO4)cccc2C1=O | inconclusive: 29.1 µM [inhibitor, single point] | –
O=C(COC(=O)C1c2ccccc2Oc2ccccc21)NC1CCS(=O)(=O)C1 (stereo not drawn) | inconclusive: 16.4 µM [inhibitor, single point] | –

SMILES | Potency | activity change, negative = growth inhibition
Cc1c(OCC(=O)OC(C)(C)C)ccc2c3c(c(=O)oc12)CCC3 | inconclusive: 23.1 µM [inhibitor, single point] | –
O=C(NCCCCCCNC(=O)ON=C1CCCCC1)ON=C1CCCCC1 | inconclusive: 6.13 µM [inhibitor, full curve] | –
CCC1CCCCN1C(=O)c1sc2nc(C)nc(N(CC)CC)c2c1C (stereo not drawn) | inconclusive: 23.1 µM [inhibitor, single point] | –
CCOC(=O)c1c(C)[nH]c(C(=O)OC(C)C(=O)NC2CCCCC2C)c1C (stereo not drawn) | inconclusive: 16.4 µM [inhibitor, single point] | –
O=C(CN1Cc2ccccc2OC(c2ccsc2)C1)NCc1ccc2c(c1)OCO2 (stereo not drawn) | inconclusive: 29.1 µM [inhibitor, single point] | –
COC(=O)[C@@]1(Sc2ccc(C)cc2)CC(=O)N(c2ccc(Cl)cc2)[C@@H]1c1ccccc1 | inconclusive: 29.1 µM [inhibitor, single point] | –
CC(OC(=O)Cc1n[nH]c(=O)c2ccccc12)C(=O)N(C)c1ccccc1 (stereo not drawn) | active: 8.2 µM | –
O=C(NCc1ccccc1)C(c1ccccc1F)n1c(=O)c(-c2cc3ccccc3[nH]2)nc2ccccc21 (stereo not drawn) | inconclusive: 29.1 µM [inhibitor, single point] | –
CC(C)C[C@H]1COCCS(=O)(=O)N1Cc1cccc(Cl)c1 | active: 14.6 µM | –
CSc1nc2n(n1)C(c1cccs1)C1=C(CCCC1=O)N2 (stereo not drawn) | – | inactive: 4.5%
N#Cc1ccccc1NC(=O)COC(=O)/C=C/c1cn(-c2ccccc2)nc1-c1ccc(Cl)cc1 | inconclusive: 9.2 µM [inhibitor, partial curve] | –
Cc1cc(C)c2c(-n3cccc3)c(C(=O)O)sc2n1 | – | inactive: -9.36%
COc1ccc(-n2c(=O)c3c4c(sc3n3c(=S)[nH]nc23)COC(C(C)C)C4)cc1 (stereo not drawn) | – | inactive: -4.72%
NC(=S)NN=Cc1nccc2c(C(F)(F)F)cccc12 | active: 0.517 µM | –
Cc1cc(Nc2ccccc2F)n2ncnc2n1 | – | inactive: 1.37%
Cc1cc(C)nc(N/N=C/c2c[nH]c3ccccc23)n1 | – | inactive: 3.11%
CCCC(NC(=O)C(C)N1CCN(S(=O)(=O)c2ccccc2)CC1)c1ccccc1 (stereo not drawn) | inconclusive: 25.9 µM [inhibitor, single point] | –
COc1ccc(C(O)c2ncc(-c3ccc4ccccc4c3)[nH]2)cc1F (stereo not drawn) | inconclusive: 20.6 µM [inhibitor, single point] | –
CCc1nn(CCCC(=O)N2CCN(c3cccc(C)c3C)CC2)c(=O)c2cc3occc3n12 | inconclusive: 18.4 µM [inhibitor, single point] | –
COc1ccc(C(=O)N2CCC(C)(C(=O)NS(=O)(=O)C3CC3)C2)cc1F (stereo not drawn) | – | inactive: -20%
CCc1ccccc1NC(=O)c1cc2c(Cl)nc3ccccc3c2s1 | inconclusive: 29.1 µM [inhibitor, single point] | –
CCCCCN(C(=O)NC(=O)Nc1ccccc1C)S(=O)(=O)c1ccccc1 | inconclusive: 29.1 µM [inhibitor, single point] | –
